# Some of the results follow.
# System: HSkMC (human skeletal muscle cells)
# Test: cytotoxicity call (relative viability < 0.9)
# Details: 10 µM
row,Compound,cytotoxicity call
1,CC(C)c1ccc(/C=C2\CSc3ccccc3C2=O)cc1,inactive
2,CC1(C)[C@@H](OC(=O)CCC(=O)O)CC[C@@]2(C)[C@H]1CC[C@]1(C)[C@H]2C(=O)C=C2[C@@H]3C[C@@](C)(C(=O)O)CC[C@]3(C)CC[C@]21C,inactive
3,Cc1noc(C)c1NC(=O)Nc1cccc2c1O[C@H](CN(C)Cc1ccc(-c3ccccc3)cc1)[C@@H](C)CN([C@H](C)CO)C2=O,inactive
4,COc1ccc2c3c(n(c2c1)C)[C@H](CO)N(Cc1ccccc1)C[C@]13CCN(CC1)C(=O)Nc1cccc(c1)F,inactive
5,CNC[C@H]1OCCCC[C@@H](C)Oc2ccc(NC(=O)Nc3ccc(C(F)(F)F)cc3)cc2C(=O)N([C@H](C)CO)C[C@@H]1C,inactive
6,COc1ccc(NC(=O)Nc2ccc3c(c2)C(=O)N([C@H](C)CO)C[C@@H](C)[C@H](CN(C)S(=O)(=O)c2cccs2)OCCCC[C@@H](C)O3)cc1,inactive
7,Cc1ccc(S(=O)(=O)N(C)C[C@H]2Oc3c(NC(=O)c4cc(C)nn4C)cccc3C(=O)N([C@H](C)CO)C[C@H]2C)cc1,inactive
8,C[C@@H]1CN([C@H](C)CO)C(=O)CCCn2cc(nn2)CO[C@H]1CN(C)Cc1ccc(C(=O)Nc2ccccc2N)cc1,inactive
9,C=C(C)C1COc2cc3oc(=O)ccc3cc2O1 (centres undefined),inactive
10,CN(C)CCCNC(=O)C[C@@H]1CC[C@H]2[C@@H](COC[C@@H](O)CN2S(=O)(=O)c2ccc(Cl)cc2)O1,inactive
11,C[C@H]1CN([C@@H](C)CO)S(=O)(=O)c2ccc(-c3ccncc3)cc2O[C@H]1CN(C)Cc1ccc(Oc2ccccc2)cc1,inactive
12,O=C(O)C[C@@H](NCCN[C@H](CC(=O)O)C(=O)O)C(=O)O,inactive
13,COCCNC(=O)C[C@@H]1C[C@@H]2c3cc(NC(=O)CN(C)C)ccc3O[C@@H]2[C@@H](CO)O1,inactive
14,C[C@H](CO)N1C[C@H](C)[C@H](CN(C)S(C)(=O)=O)OCCCC[C@H](C)Oc2ccc(NS(=O)(=O)c3cccs3)cc2C1=O,inactive
15,O=C(C[C@@H]1C=C[C@H](NC(=O)Nc2cc(F)ccc2F)[C@@H](CO)O1)NCCCN1CCOCC1,inactive
16,C[C@H]1CN([C@@H](C)CO)C(=O)c2cccc(NC(=O)Nc3ccc4c(c3)OCO4)c2O[C@@H]1CN(C)C(=O)Nc1ccc(C(F)(F)F)cc1,inactive
17,Cc1noc(C)c1NC(=O)N(C)C[C@@H]1Oc2ccc(NS(=O)(=O)c3ccccc3)cc2C(=O)N([C@@H](C)CO)C[C@H]1C,inactive
18,Cc1noc(C)c1NC(=O)N(C)C[C@@H]1Oc2ccc(NC(=O)NC(C)C)cc2CC(=O)N([C@@H](C)CO)C[C@@H]1C,inactive
19,Cc1noc(C)c1NC(=O)N(C)C[C@@H]1Oc2ccc(NC(=O)CCN3CCOCC3)cc2CC(=O)N([C@@H](C)CO)C[C@H]1C,inactive
20,C[C@@H]1CCCCO[C@H](CN(C)CC2CCCCC2)[C@H](C)CN([C@@H](C)CO)C(=O)c2cc(NC(=O)C3CCCCC3)ccc2O1,inactive
21,C[C@H](CO)N1C[C@H](C)[C@H](CN(C)CC2CCCCC2)Oc2ccc(NC(=O)Nc3ccc(F)cc3)cc2C1=O,inactive
22,C[C@@H]1CCCCO[C@@H](CN(C)Cc2ccc(C(=O)O)cc2)[C@@H](C)CN([C@@H](C)CO)C(=O)c2cc(NS(=O)(=O)c3cccs3)ccc2O1,inactive
23,CC(C)NC(=O)Nc1ccc2c(c1)CC(=O)N([C@H](C)CO)C[C@@H](C)[C@H](CN(C)S(=O)(=O)c1ccc(Cl)cc1)O2,inactive
24,COc1ccc(S(=O)(=O)Nc2cccc3c2O[C@H](CN(C)S(=O)(=O)c2ccc(F)cc2)[C@H](C)CN([C@H](C)CO)C3=O)cc1,inactive
25,C[C@H](CO)N1C[C@H](C)[C@H](CN(C)Cc2ccc(Oc3ccccc3)cc2)Oc2ccc(NC(=O)Nc3cccc4ccccc34)cc2C1=O,active
26,COc1ccc(CN(C)C[C@H]2OCCCC[C@H](C)Oc3ccc(NC(=O)Nc4ccc5c(c4)OCO5)cc3C(=O)N([C@H](C)CO)C[C@@H]2C)cc1,inactive
27,Cc1noc(C)c1NC(=O)Nc1ccc2c(c1)C(=O)N([C@H](C)CO)C[C@H](C)[C@@H](CN(C)C(=O)C1CCCCC1)OCCCC[C@H](C)O2,inactive
28,COCC(=O)Nc1ccc2c(c1)OC[C@H](C)N(Cc1cccc(F)c1)C[C@@H](C)[C@@H](OC)CN(C)C2=O,inactive
29,COc1ccc(NC(=O)Nc2cccc3c2O[C@@H](CN(C)CC2CCCCC2)[C@H](C)CN([C@H](C)CO)C3=O)cc1,inactive
